This is one part of the list.
tested on: PfAP2-HC AP2 domain (GST-tagged); test: gcPBM binding intensity (ln(normalized median fluorescence intensity)); higher = stronger DNA binding
Method in brief: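 In this array assay, P. falciparum DNA-binding domains with a GST tag, expressed in E. coli, were applied for 1 h to primer-extended double-stranded 36-bp intergenic genomic probes and negative controls on an Agilent 4 × 180k array. Bound protein was visualised with Alexa488 anti-GST antibody at 488 nm. Binding intensity is the highest Masliner-normalised natural-log median intensity across replicate spots of either probe orientation.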

| Sequence | gcPBM binding intensity (ln) |
| --- | --- |
| TTATAGAAAATGGAATAGAATGGAATGGAAGAAATA [CACACA_negctrl_site1086] | 9.69 |
| ATTATATATAAGAAGAGTACTGAATATGTGCAATAT [XGTACX_site4471] | 9.84 |
| TATATACACCCACATACACACAAATAAAAAAACACC [CACACA_site3414] | 10.5 |
| GACATTGATACCAGTAGTACCTATAGATGTTTGTTT [XGTACX_site5736] | 10 |
| TTATGGAATAATCACGTACACACAAGAAAAAAAAAA [CACACA_site526] | 9.93 |
| ATGGTACATACATACACACACACAAAAAAAAAAAAA [CACACA_site1578] | 11.3 |
| GTTCAATTTTTAGGAAGTACAAAAAAAAAAAAGAAA [XGTACX_site7286] | 9.42 |
| CAAACCTATATACAAACATGCAATCCACATATTGGT [TGCATGCA_site756] | 9.65 |
| TATATTTGTATTGTTTGTACTTATATGAATTTATAT [XGTACX_site4228] | 9.8 |
| TATATTAGTGTTGACACACACAAAAAAAAAAAAAAA [CACACA_site1396] | 9.78 |
| TAAGAAAAAAAAAAAAAAAAAAAAAAAAAAAAAAAA [CACACA_negctrl_site760] | 9 |
| TAAAAATATTTTCATTGTACATATATATAAATATAT [XGTACX_site1123] | 9.65 |
| TATAAAAAAAAAAAATATATATATATATAAATATAA [TGCATGCA_negctrl_site367] | 9.56 |
| TCACCTATTTTTAACTGTACTGAAATGATATATATA [XGTACX_site1366] | 9.5 |
| TAATGAAATTGTAGTAGTACCTTCTTATAAATAAAA [XGTACX_site6747] | 9.38 |
| ATTTGTTACGGACATGCATGCGAATCAGGGTATATA [TGCATGCA_site154] | 9.74 |
| TTGAGGAAATAACAGTGTACAAACAAATTATTACCA [XGTACX_site7082] | 9.82 |
| TACATATATATATATATATATATATATATCATTATG [XGTACX_negctrl_site293] | 9.95 |
| TTTGTGATATTATATTGTACCCTATATTTATTATAA [XGTACX_site4240] | 9.74 |

| Sequence | gcPBM binding intensity (ln) |
| --- | --- |
| GAATGGACGTTAGGGGGTACGTATAAAATTTATCAA [XGTACX_site683] | 9.83 |
| TTTATTGACAATTTATGTACATATAATTGAAAAATA [XGTACX_site6634] | 9.43 |
| CTTATATATATATCATGTACTTATGTATTTAAGAAT [XGTACX_site3307] | 9.51 |
| ACAATAAAAATTTATGCATGTGAATTGAAAAAAAAA [TGCATGCA_site1037] | 9.57 |
| AATATATACAATATATGTACATATATATACACATAT [XGTACX_site4190] | 9.87 |
| CTTTTATTAAAATTCACACACATAAACTTTTATAAA [CACACA_site7027] | 9.72 |
| ATAAAATACCTATAAACACACATATAAACAGACATA [CACACA_site7213] | 10.5 |
| AAATAAAACAAACACACACACACATACACAAAAAAA [CACACA_site3849] | 10.8 |
| GTTATTGAAAAAATAGTGCAATATAACAAAGTAAAA | 9.93 |
| TAATTTCTTATGTATTGTACAAATAATATATGATAT [XGTACX_site611] | 9.49 |
| GGAATGTAGGGTTTTACCAAAATAAAAATAACCATA [XGTACX_negctrl_site492] | 9.57 |
| TATATATATATATGTACACACATATATACCTTTCAT [CACACA_site2679] | 9.81 |
| TATATATTTCGGTGTGCACACTTTTTATTTTTATCC [CACACA_site1726] | 10.3 |
| CACTTAACACAAGAGTGTACACATATATATATATAT [XGTACX_site686] | 9.89 |
| TTTTTCTCTTTAAGGTGTACAATAATACAGTAACCA [XGTACX_site300] | 9.37 |
| TTGTACGCAAAAAAAAAAAAAAAAAAATTAAAATTT [TGCATGCA_negctrl_site586] | 9.07 |
| ATATTAGTAACACAGACACACAAAAAAAAAAAAAAA [CACACA_site2176] | 9.49 |
| AGGAAAATACCTTAATGTACATAGAAAAGTAACATT [XGTACX_site8011] | 9.65 |
| TTTTTTATTATCAAAACATGCATTTTTTAAATGGAA [TGCATGCA_site557] | 9.28 |

| Sequence | gcPBM binding intensity (ln) |
| --- | --- |
| TAATGAAATATACAGAGTACATTCTGTATATAGGAT [XGTACX_site7691] | 9.77 |
| TACTCAAAAATTAATTAGCATAATATATATAAAAAT [GTGCAC_negctrl_site613] | 9.29 |
| GCATAAGAAAATAATTGTACAATTTACATACATAAA [XGTACX_site8286] | 9.63 |
| TATATATGTATATATATAAATATATATATATATATA [TGCATGCA_negctrl_site605] | 9.7 |
| TATAAATATATATACACACACACATTAATACATATA [CACACA_site3488] | 10.8 |
| TTAAGAAGTTCTAAATGTACATACATAACCACGTTA [XGTACX_site7514] | 9.47 |
| GGGAAATATTGAAACACACACGAACGCACGTATTTC [CACACA_site6258] | 9.91 |
| ATAATATTTTCTTCTTATTGAATGCTTTAAATTTAC [CACACA_negctrl_site1273] | 9.56 |
| ACAAATAAGTTTTGTAGTACTGTGTATATATATATA [XGTACX_site6901] | 9.7 |
| TTAAACCGTGGGAGCACACACACACCCCCACCCATA [CACACA_site331] | 10.3 |
| AAAGGTAAGCAGAATAGTACAGAAGAAAAAATATTT [XGTACX_site2941] | 9.71 |
| TTTTGTTTGTTCGTGACTACATTATGTTGTAAATAC [CACACA_negctrl_site604] | 9.66 |
| CAACATTTGAGACACACACACATACAAACAAACAAA [CACACA_site7538] | 11.2 |
| TATCCTATAAATAATACATGCATATATATATATATT [TGCATGCA_site638] | 9.76 |
| AAATAGTATATAATATGTACATACATAAAAATGTAT [XGTACX_site3524] | 9.84 |
| ACCTATGTATATTATACACACTCCAAACTATTATTT [CACACA_site1817] | 9.96 |
| TATAAATATTTATAAACACACAAATATATATATTTA [CACACA_site27] | 9.65 |
| GCACGCTGTATGAATGCACACATTCATAGAATTGCT [CACACA_site8852] | 9.67 |
